# Data from the RNAGym collection of RNA variant scans (doi:10.7554/elife.90254).
# Read counts are not given, so values of variants with three or more changes are uncertain.
# B1: LINE1-mini (parent)
# chain: GGCAGAGCUCAACACAGCGUGGCAAAGUGGCUGUGGCUAGACUGCC
# Variants of: B1
# Test: self-cleavage, relative activity (ratio to wild type); higher = more cleavage; in vitro, sequencing; the parent is a self-cleaving ribozyme
row,Variant,self-cleavage
1,G27C G30A G36U G40U,0.49
2,G5U U32C C37U,0.18
3,G1U A6U A11C G19U G35A,0.01
4,C3G G7C C10A G19A U28G G29U U43A,0.01
5,G33C C37U C45U,0.03
6,C8G U28G G29U,0.07
7,G36U C37A C42G,0.07
8,G7A C13U C42U,0.01
9,G1C A25G A39C C42A,0
10,G2C U34G G44U,0.02
11,A16C G33C G36U,0.03
12,C18G G33A C37U C46U,0.07
13,C15A A39U G40U,0.05
14,C18G C31U C37G G40U,0.01
15,C10A G35U G36U A41U,0.01
16,C8U A24U U28C G30U U38A,0.04
17,G5C A6U C10A G19C C31G U38C,0
18,C3G G19U C23A U34A,0.3
19,C13U C15A C23A U38A,0.01
20,G21C U38G C42G,0
21,C18G C31U A41C,0.01

row,Variant,self-cleavage
1,G5C A12U A16G C37A,0.11
2,G7A A16U G44U,1.22
3,A11G A16U C31U C37U G40C,0
4,A12U G21U G33U,0.04
5,G1U C8A C10A U38G G44A,0
6,C8A C37A G44A,0.12
7,A4G G30U C37U A39U G44C,0
8,U9A C18G G19U C45U,0.03
9,G5U U38G C46U,0.02
10,C3U G33A A41U,0.08
11,A4U U9A G27U C42A,0.21
12,G1U G2U C23A,0.38
13,G1U G5C C18U G19A A26G U34C,0.04
14,A6G C18A G21U,0.15
15,A4G G5C A14G U20G A25G U34A,0.01
16,G2A C13U A14U G29C,0.32
17,U9A C10U G17A G22C A24C,0.02
18,A4G A11G C23G G27U G30U,0.23
19,C15U G21U U32A,0.03
20,A4C A12G G19U,0
21,G2A A12G A25G C46G,0.01

row,Variant,self-cleavage
1,C3U G5A A6U C8G,0.06
2,U20G A24U G30C,0.7
3,C8G C13G A14G G40A A41C G44C,0.01
4,C3G A4U G22C U38G,0.01
5,U20A G36C C37G,0.01
6,G17U G21A G22U A26C G36C,0.01
7,G30U U34G U43A,0.04
8,G1U U32A U43C,0
9,C8U C23U U32G,0.16
10,A11C A14G G17A G30A G35A U38G,0.01
11,C3A C18U A41C U43C,0.09
12,G1C G19C C45U,0.27
13,G2C C15G C23U A25C G33U G36U,0.05
14,C18A C23G A24U C31A G40U,0
15,G2A A4C C10A C15U A16C,0.05
16,A14G A24C U43A,0.01
17,C13U G33U A41U,0.07
18,C8G A11U C46A,0.02
19,C15U C18U C23G A26C,0.09
20,A4G G22A G33U U38G,0.11
21,G1C C37G G40C,0.03

row,Variant,self-cleavage
1,A25G C31U C37A,0.12
2,C13U G22C G40C,0.03
3,G5A C8U G17A G21C G27A,0.13
4,G5U A12G G29U,0.02
5,G7C C15A G22U U32A,0.12
6,G1A C10U U28A,0.34
7,G21C G33A G44C,0.02
8,A6G A12U C18U C45U,0.03
9,C3G G5U G19A U28A,0.78
10,C18U G40U C42U U43A,0
11,G1U A12G C13A U20A C23U,0.04
12,C18U A24G A25C,0.22
13,G7U A26C G27A,0.02
14,C23G G30C G40U G44C C45A,0
15,C10U G40U A41G,0.03
16,G29U C31A G35A,0.06
17,G5C G22U G33A,0.04
18,G1A G19U C37A,0.01
19,A4U A11U C31G C37A,0.01
20,A11C A24C G30A,0.03
